Assay results reported in PubChem BioAssay AID1347073 (National Center for Advancing Translational Sciences (NCATS), 2019).
The campaign covered roughly 45,000 compounds. About 200 (0.44%) were called active. Another 7% or so got no clear call; they are omitted. Calls come from the whole dose curve; as a rule, active = well fitted activation curve with a large enough effect; inconclusive = small, poorly fitted or top-dose-only effect; inactive = no such curve, though single readings can be large or run the other way. Some of the results follow.

Experiment: qHTS of TDP-43 Inhibitors: NCGC Sytravon Library Screen; note: 0% is about no effect; nearly all actives have a fitted effect of over 55% in size
Details: yeast TDP-43 toxicity rescue, BacTiter-Glo growth, 24 h; series mostly up to 46.1 µM; growth rescue (activation): at the top concentration
In short: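 TDP-43-expressing yeast, pregrown in raffinose, seeded at OD600 0.02 in galactose medium with compound for 24 hr at 30 deg C. Growth read by BacTiter-Glo luminescence, so rescue of toxicity appears as activation.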

Compound	growth rescue (activation)
COc1cccc2c1O/C(=N\O)C(C(=O)Nc1cccc(Br)c1)C2 (stereo not given)	inactive: 8.31%
O=C(c1ccccc1F)N1CCN(c2ccc([N+](=O)[O-])c(N3CCOCC3)c2)CC1	inactive: 15.3%
CCCCCCCOC(=O)C[N+](C)(C)CCOC1CC2CCC1(C)C2(C)C (stereo not given)	inactive: -69.9%
CCC(C(=O)OCC(=O)Nc1cc(OC)ccc1OC)c1ccccc1 (stereo not given)	inactive: 5.02%
CCc1nnc(NC(=O)c2nc(S(=O)(=O)Cc3ccccc3)ncc2Cl)s1	inactive: 18.6%
O=C(N/N=C/c1cc2c(cc1Cl)OCO2)c1ccc2c(c1)OCCO2	inactive: 6.34%
COc1cc(OC)cc(-c2noc(-c3csc([C@@H]4O[C@H](CO)[C@H](O)[C@H](O)[C@H]4O)n3)n2)c1	inactive: -11%
COc1ccc(NC(=O)c2ccccc2NS(=O)(=O)c2ccc(CNC(C)=O)cc2)c(OC)c1	inactive: -3.09%
COC(=O)c1cc(CNC(=O)c2ccc(O)c(Cl)c2)ccc1OC	inactive: -9.91%
CC(C)c1ccc(C(=O)OC2CCOC2=O)cc1 (stereo not given)	inactive: 15.8%
COc1ccc(NC(=O)COC(=O)C2CC3C=CC2C3)cc1 (stereo not given)	inactive: 18.8%
CC1CC(C)CN(S(=O)(=O)c2ccc(NC(=O)CN3CCCCCC3)cc2)C1 (stereo not given)	inactive: 19.4%
COCCNC(=O)CCc1c(C)nc2nc(-c3cc(OC)cc(OC)c3)nn2c1C	inactive: 15.4%
Cn1nnc(NC(=S)NC(=O)c2cccs2)n1	inactive: 3.41%
COc1ccc(CNC(=O)C/C(C)=N/NC(=O)COc2ccc(Br)cc2)cc1	inactive: 12.7%
COc1ccc(S(=O)(=O)N(C)C)cc1NC(=O)CN1C(=O)NC2(CCCC2)C1=O	inactive: -12.9%
Cc1ccc(-n2c(=O)c3sccc3n(Cc3cc(=O)n4ccccc4n3)c2=O)cc1	inactive: 7.43%
O=C(Nc1ccc(Cl)cn1)c1ccc(Oc2ccccc2)cc1	inactive: -0.23%
CNC(=O)N(O)C1N(/N=C/c2cccnc2)C(=S)SC1(C)C (stereo not given)	inactive: 3.07%
COc1ccc(-c2csc3nc(-c4cccnc4)nc(Cl)c23)cc1OC	inactive: 20.5%
CCOC(=O)CN(C)C(=O)CCc1nnc(-c2ccsc2)o1	inactive: 7.98%
COCCNc1nc2sc3c(c2c(=O)n1Cc1ccco1)CCCCC3	inactive: 14%

Compound	growth rescue (activation)
Nc1c2c3c(sc2nc(=O)n1N)CCCC3	inactive: 7.48%
COc1ccccc1OC(C)C(=O)Nc1ccc2c(c1)OCCO2 (stereo not given)	inactive: 30.8%
COc1cccc(NC(=S)NCc2ccncc2)c1	inactive: -22.2%
CC(C)(C)c1cc(NCCCn2ccnc2)n2ncc(-c3ccccc3)c2n1	inactive: 22.3%
CCCCCN(C(=O)CCCSc1nncs1)c1c(N)n(CCCC)c(=O)[nH]c1=O	inactive: 4.69%
CC(C)N1CCC(C)(C(=O)Nc2cccc(Oc3ccccc3)c2)C1 (stereo not given)	inactive: 9.6%
N#CC(c1ccccc1)c1cccc(Cl)n1 (stereo not given)	inactive: -1.05%
COc1ccc(C(=O)NC2CC2)cc1OC1CCN(Cc2cnn(C)c2C)CC1	inactive: 13.6%
Clc1cccc(Cl)c1CSc1nnc([C@@H]2CCCN2)o1	inactive: 9.95%
COCCn1c(=O)c2ccccc2c2ccccc2c1=O	inactive: 18.4%
NC(=O)Cc1nc(-c2ccc([N+](=O)[O-])cc2)cs1	inactive: 9.61%
CCOC(=O)c1cc(-c2ccc3c(c2)OCCO3)nc2c1c(C)nn2CCC#N	inactive: -1.39%
COC(=O)c1cc(-c2cccc([N+](=O)[O-])c2)c2c(=O)[nH]c(=O)n(C)c2n1	inactive: -14.6%
CN(C)S(=O)(=O)c1ccc(C(=O)NCc2ccco2)cc1	inactive: -3.51%
CCOc1cc(NC(=S)NCCCN2CCOCC2)c(OCC)cc1NC(=O)c1ccc(C)cc1	inactive: 7.44%
CC1=CN2C(=N)/C(=C/c3ccco3)C(=O)N=C2S1	inactive: -11.8%
CCOC(=O)C1=C(c2ccc(OC)cc2)C(=O)c2ccccc2C1=O	inactive: 0.678%
COc1ccc(CCNc2ccc(N3C(=O)CC(C)C3=O)cc2[N+](=O)[O-])cc1 (stereo not given)	inactive: 11.8%
CCN(CC)S(=O)(=O)c1ccc2c(c1)N(CC(=O)N1CCCC1)C(=O)CO2	inactive: -13.2%
Cc1ccc(Nc2nnc(SCC(=O)Nc3cccc(S(=O)(=O)N4CCCCC4)c3)s2)cc1	inactive: -5.27%
COc1ccc(CNC(=O)CN(C(=O)CCC(=O)Nc2nccs2)c2cccc(C)c2)cc1	inactive: 4.13%
O=C(CSc1ccc(Cl)cc1)OCC(=O)N1CCN(c2ccccc2)CC1	inactive: -3.73%

Compound	growth rescue (activation)
Cc1ccc(S(=O)(=O)CCC(=O)OCc2ccc(S(=O)(=O)C(C)C)cc2)cc1	inactive: 1.99%
CCOC(=O)c1ccc(NC(=O)N2CCN(Cc3ccccc3)CC2)cc1	inactive: -3.08%
Fc1ccc(OCc2nnc(-c3ccccc3Br)o2)c(Cl)c1	inactive: 9.62%
CC(C)Oc1cccc(C(=O)C2CCCN(Cc3cnc(N4CCOCC4)s3)C2)c1 (stereo not given)	inactive: 6.4%
Cc1ccc(C)c(N2CCN(C(=O)c3cc(S(=O)(=O)N4CCOCC4)ccc3F)CC2)c1	inactive: 9.56%
Cc1c(C(=O)OCC(=O)NCC2CCCO2)cccc1[N+](=O)[O-] (stereo not given)	inactive: 5.33%
c1cc(-c2cc3nc(NCC4CC4)ccn3n2)ccc1OCCN1CCOCC1	inactive: 2.91%
Cc1ccc(CNC(=O)CSc2ncn[nH]2)cc1	inactive: 9.48%
COc1ccc(C(C(=O)NC2CCCC2)N(Cc2cccnc2)C(=O)Cc2cccs2)cc1OC (stereo not given)	inactive: -9.1%
NC(=O)C1CCN(S(=O)(=O)c2ccc3c(c2)OCCO3)CC1	inactive: -16.8%
CC(NC(=O)C(C)N1CCN(Cc2ccccc2)CC1)c1ccccc1 (stereo not given)	inactive: 0.531%
CNc1cnc(-c2ccccc2OC)cn1	inactive: 5.7%
Cc1ccc(-n2c(SCC(=O)N3c4ccccc4Sc4ccccc43)nnc2-c2ccncc2)cc1	inactive: 26.7%
CCCNC(=O)C1(C)CCN(Cc2cc(C(F)(F)F)ccc2Cl)C1 (stereo not given)	inactive: 5.81%
O=C(COc1ccc(Br)cc1)Nc1ccncc1	inactive: -18.6%
CCN(CC(=O)NCc1ccc(Cl)cc1)C(=O)c1cnc(Cl)c(Cl)c1	inactive: 2.96%
CCC(CC)N=C1NS(=O)(=O)c2cc([N+](=O)[O-])ccc21	inactive: 19.6%
CC(C)(C)Nc1scc(-c2ccccc2)[n+]1-c1ccccc1	inactive: 4.56%
COCCNC(=O)Cn1cc(S(=O)(=O)N2CCN(c3ccccc3F)CC2)c2ccccc2c1=O	inactive: -1.65%
CCn1cc(C(=O)OCC(=O)Nc2ccc(C(C)C)cc2)c(=O)c2ccc(C)nc21	inactive: 19.1%
O=C(c1ccccc1O)N1CCOCC1	inactive: 0.381%
CC1(c2cccc(Br)c2)NC(=O)N(CC(=O)Nc2ccc(F)cc2)C1=O (stereo not given)	inactive: 0.321%

Compound	growth rescue (activation)
CCCOc1ccc(C2NC(=S)NC(c3ccccc3)=C2C(=O)Nc2ccc(C)cc2)cc1OC (stereo not given)	inactive: 23.5%
COc1cc(/C=N/Nc2nc(C)cc(=O)[nH]2)ccc1OC(=O)c1cccnc1	inactive: -10.2%
O=C1CSC(=Nc2ccccc2[N+](=O)[O-])N1	inactive: 14.2%
N/C(Cc1ccc(Cl)cc1Cl)=N\OC(=O)c1ccccc1F	inactive: -93.3%
CS(=O)(=O)N1CCN(C(=O)Cc2ccccc2Cl)CC1	inactive: -2.06%
O=C(CS(=O)(=O)c1ccc(Cl)cc1)NCCS(=O)(=O)c1ccc(Cl)cc1	inactive: -2.27%
Cc1ccc2c(c1)N(CC(=O)N1CCOCC1)C(=O)C(C)O2 (stereo not given)	inactive: -3.55%
O=CN(CCN(C=O)CN1CCCCC1)CN1CCCCC1	inactive: -7.45%
CCN1CN(Cc2ccccc2)CNC1=S	inactive: 13.3%
C=C(C)Cn1c(C)cc(C)c(S(=O)(=O)c2ccc(C)cc2)c1=O	inactive: 6.68%
O=C(NNC(=O)c1ccccc1Br)c1cccs1	inactive: 4.72%
Clc1ccc(/C=N/N2CCN(Cc3ccccc3Cl)CC2)cc1	inactive: 13.8%
COC(=O)c1cc(Nc2cc(C)c3ccc(O)cc3n2)cc(C(=O)OC)c1	inactive: 6.76%
O=c1ccnc(Nc2ccc3c(c2)OCCO3)[nH]1	inactive: -11.4%
O=C(NCC1CCCO1)c1cc(-c2ccccc2)nc2ccccc12 (stereo not given)	inactive: -5.45%
Cn1c(=O)c2c(nc(CO)n2C)n(C)c1=O	inactive: -35.8%
COc1ccccc1NC(=S)N1CCCC1	inactive: -17.6%
CC(=O)c1ccccc1C(=O)N1CCC(n2nccc2NC(=O)C2CC2)CC1	inactive: 14.7%
Cc1cc(C)n(-c2ccc([N+](=O)[O-])cc2-c2nn[nH]n2)n1	inactive: 3.17%
O=C(NCCN1CCOCC1)c1cccnc1SCc1ccccc1Cl	inactive: 7.99%
COCCNc1nc(NCC2CCCCC2)c2sc(-c3ccccc3)cc2n1	inactive: -1.69%
O=C(NC(=S)NCc1ccccc1)c1ccccc1[N+](=O)[O-]	inactive: 17.3%

Compound	growth rescue (activation)
Cc1ccc(/C=C2/SC(=O)NC2=S)o1	inactive: -26.9%
COc1cc(C(=O)N2CCCCC2c2cc(C(=O)N3CCOCC3)no2)cc(OC)c1C (stereo not given)	inactive: 1.26%
CCOC(=O)c1ccc(N2CCN(c3cc(C)ccc3C)CC2)c(N)c1	inactive: 15.1%
O=C(O)c1nn2cc(CCO)cnc2c1Cl	inactive: 3.55%
CS(=O)(=O)N1CCN(C(=S)NCc2ccc(F)cc2)CC1	inactive: -4.15%
Cn1cc(C=C2C(=O)CC(C)(C)CC2=O)c2ccccc21	inactive: 4.42%
CCOC(=O)CC(NC(=O)c1cccc2c1C(=O)N(Cc1cccnc1)C2)c1ccc(OCC)c(OC)c1 (stereo not given)	inactive: -5.46%
COc1ccccc1CNCC(=O)Nc1ccc(C#N)cc1	inactive: 1.84%
Nc1cc(=O)[nH]c(SCCSc2ccc(F)cc2)n1	inactive: -0.177%
COc1ccc(-c2cc3nc(NCc4ccc(N(C)C)cc4)n(C)c(=O)c3s2)cc1OC	inactive: 18.7%
CCC(NC(=O)Nc1nccs1)(C(F)(F)F)C(F)(F)F	inactive: 18.1%
O=C(Cc1ccccc1)NCC(=O)Nc1ccc(OC(F)(F)F)cc1	inactive: 6.62%
COc1cc(S(=O)(=O)n2ccc(C)n2)ccc1Cl	inactive: 8.41%
C=CCOc1ccc2c3c(c(=O)oc2c1)CCCC3	inactive: -4.71%
O=C(O)C1CSC2(c3ccc(F)cc3)CCC(=O)N12 (stereo not given)	inactive: 2.44%
Cc1ccc(NC(=O)COC(=O)CCc2c(C)nc3ncnn3c2C)cc1C	inactive: 12.1%
CN(CC(=O)Nc1ccc(N2CCOCC2)cc1)CC(=O)Nc1ccc([N+](=O)[O-])cc1Br	inactive: 3.96%
C#CC(C)(CC)NC(=O)Cn1nnc(-c2ccc(OCc3c(F)cccc3Cl)cc2)n1 (stereo not given)	inactive: 2.54%
COc1ccc2[nH]c(=O)c(CN(C)C(=O)c3cccs3)cc2c1	inactive: -33%
COc1ccccc1CNC(=O)c1ccc2c(c1)OCO2	inactive: 26.6%
Oc1ccc(Br)cc1/C=N/n1c(C2CCCCC2)n[nH]c1=S	inactive: -5.83%
COc1cccc2cc(C(=O)OCC(=O)N3CC(C)OC(C)C3)c(=O)oc12 (stereo not given)	inactive: 1.73%
